The supplement of paper PMC9446081
Hit rate of the full screen: of about 39,000 compounds, about 220 (0.56%) showed activity. Some of the results follow.

system: Escherichia coli K-12 BW25113; assay: relative growth (OD600 normalised to plate interquartile mean) (fraction); higher = less growth inhibition, active = 0.2 or less; settings: 50 µM; LB; incubation time: overnight (16-24 h)
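Note: static incubation at 37 °C against the wild-type strain, values averaged over two biological replicates.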

SMILES | relative growth
COc1ccc(-c2cnc3c(c2)C(=O)N([C@@H](C)CO)C[C@@H](C)[C@H](CN(C)C(=O)Cc2ccccn2)O3)cc1 | inactive: 0.978
Cc1ccc(S(=O)(=O)Nc2ccc3c(c2)C(=O)N([C@@H](C)CO)C[C@@H](C)[C@@H](CN(C)C(=O)Nc2c(C)noc2C)OCCCC[C@@H](C)O3)cc1 | inactive: 1.01
C[C@H](CO)N1C[C@H](C)[C@H](CN(C)C(=O)Nc2cccc3ccccc23)OCCCC[C@H](C)Oc2ccc(NC(=O)c3ccncc3)cc2C1=O | inactive: 0.967
CS(=O)(=O)N1C[C@H](NC(=O)C2CC2)[C@H]2OCCC[C@H]21 | inactive: 0.984
C[C@@H]1CN([C@H](C)CO)C(=O)Cc2cc(NC(=O)Cn3cnnn3)ccc2O[C@H]1CN(C)C(=O)Nc1ccc(C(F)(F)F)cc1 | inactive: 0.984
C[C@H](CO)N1C[C@H](C)[C@@H](CN(C)C(=O)CN2CCOCC2)Oc2ncc(-c3cncnc3)cc2C1=O | inactive: 0.982
C[C@H]1CCCCO[C@@H](CN(C)C(=O)c2ccncc2)[C@@H](C)CN([C@@H](C)CO)C(=O)c2cc(NS(=O)(=O)c3ccc(Cl)cc3)ccc2O1 | inactive: 0.976
CO[C@H](CN(C)S(=O)(=O)c1cccc(Cl)c1)[C@@H](C)CN([C@@H](C)CO)S(=O)(=O)c1cccc(Cl)c1 | inactive: 1.01
C[C@H](CO)N1C[C@H](C)[C@H](CN(C)Cc2ccc(-c3ccccc3)cc2)Oc2ccc(NC(=O)C3CCCCC3)cc2C1=O | inactive: 1.09
COc1ccc(S(=O)(=O)N(C)C[C@@H]2Oc3c(NS(=O)(=O)c4cn(C)cn4)cccc3C(=O)N([C@@H](C)CO)C[C@@H]2C)cc1 | inactive: 1.02
C[C@H]1CN([C@@H](C)CO)C(=O)c2cccc(NC(=O)C3CC3)c2O[C@@H]1CN(C)C(=O)Nc1ccc2c(c1)OCO2 | inactive: 0.977
Cc1ccc(S(=O)(=O)N(C)C[C@@H]2Oc3ncc(C#CC4(O)CCCC4)cc3C(=O)N([C@@H](C)CO)C[C@H]2C)cc1 | inactive: 1.01
CCNC(=O)C[C@@H]1CC[C@@H](NC(=O)C2CCOCC2)[C@H](CO)O1 | inactive: 1
C[C@H](CO)N1C[C@H](C)[C@@H](CN(C)C(=O)C2CCOCC2)Oc2ncc(C#CC3(O)CCCC3)cc2C1=O | inactive: 0.982
C[C@H](CO)N1C[C@H](C)[C@@H](CN(C)Cc2ccc(Cl)c(Cl)c2)Oc2ccc(NC(=O)Cc3ccccc3)cc2C1=O | inactive: 0.957
CSc1nc(Cl)cc(Cl)n1 | inactive: 1.02
O=C(O)CN1CCCCC1=O | inactive: 1.02
Cc1ccc(Sc2c(-c3ccccc3)nc3sccn23)cc1 | inactive: 1.01
Cc1noc(C)c1NC(=O)N(C)C[C@@H]1Oc2ccc(NC(=O)C3CC3)cc2C(=O)N([C@H](C)CO)C[C@H]1C | inactive: 1
CC(=O)NCc1nnnn1-c1ccc(C)cc1 | inactive: 0.991
COCCN1CCC(CN)CC1 | inactive: 1.01

SMILES | relative growth
C[C@@H]1O[C@@H](O[C@H]2[C@H](Oc3cc(O)c4c(c3)O[C@H](c3ccc(O)cc3)CC4=O)O[C@H](CO)[C@@H](O)[C@@H]2O)[C@H](O)[C@H](O)[C@H]1O | inactive: 1.01
CCCC(=O)Nc1ccc2c(c1)OC[C@@H](C)N(Cc1ccc(-c3ccccn3)cc1)C[C@H](C)[C@@H](OC)CN(C)C2=O | inactive: 0.996
Cc1noc(C)c1NC(=O)N(C)C[C@@H]1OCCCC[C@@H](C)Oc2ccc(NC(=O)c3ccccc3)cc2C(=O)N([C@@H](C)CO)C[C@H]1C | inactive: 0.95
C[C@@H]1CN([C@H](C)CO)S(=O)(=O)c2ccc(C#CCN(C)C)cc2O[C@@H]1CN(C)C(=O)C1CCCCC1 | inactive: 0.994
COc1ccc(-c2coc3cc(O)cc(O)c3c2=O)cc1 | inactive: 1.11
C[C@H](CO)N1C[C@H](C)[C@H](CN(C)C(=O)Cc2ccncc2)Oc2cc(C3=CCCC3)ccc2S1(=O)=O | inactive: 0.966
COc1cc(-c2ccc(NN=C3C=Cc4c(S(=O)(=O)O)cc(S(=O)(=O)O)c(N)c4C3=O)c(OC)c2)ccc1NN=C1C=Cc2c(S(=O)(=O)O)cc(S(=O)(=O)O)c(N)c2C1=O | inactive: 1.69
CC1(C)O[C@H]2[C@H](O)C[C@](O)(C(N)=O)C[C@H]2O1 | inactive: 0.998
C[C@@H]1CN([C@H](C)CO)C(=O)c2cccc(NC(=O)c3cnccn3)c2O[C@@H]1CN(C)Cc1ccc(C(=O)O)cc1 | inactive: 0.977
COc1ccc(COC[C@]23N=C4SCc5ccccc5C(=O)N4[C@H](c4ccccc4O2)[C@H]3CO[Si](C)(C)C(C)(C)C)cc1 | inactive: 1.01
CO[C@H]1O[C@H](CO)[C@@H](OC(=O)c2ccc(Br)cc2)[C@@H]2OC(=O)[C@H](Cc3ccccc3)C/C=C/C[C@@H](Cc3ccccc3)C(=O)O[C@@H]12 | inactive: 1.03
C[C@]12CC[C@@H]3[C@]4(C=C[C@@]5(C=C4C(=O)c4cc6ccccc6s4)C[C@@H](O)CC[C@]35C)[C@@H]1CC[C@@]2(O)CN1CCC(n2c(=O)[nH]c3ccccc32)CC1 | inactive: 1.01
Cc1ccc(OC[C@@H](O)CN)c(C)c1 | inactive: 1.02
O=C(C[C@@H]1C=C[C@H](NC(=O)c2ccncc2)[C@H](CO)O1)NCc1ccncn1 | inactive: 1.01
COc1ccc(S(=O)(=O)N(C)C[C@H]2Oc3ccc(NC(=O)Cn4cnnn4)cc3C(=O)N([C@@H](C)CO)C[C@@H]2C)cc1 | inactive: 1.03
COc1ccc(NC(=O)Nc2ccc3c(c2)C(=O)N([C@H](C)CO)C[C@H](C)[C@@H](CN(C)S(=O)(=O)c2ccc(C)cc2)OCCCC[C@@H](C)O3)cc1 | inactive: 1.02
COc1ccc(NC(=O)Nc2ccc3c(c2)C(=O)N([C@@H](C)CO)C[C@H](C)[C@H](CN(C)S(=O)(=O)c2ccc(OC)cc2)OCCCC[C@@H](C)O3)cc1 | inactive: 1.03
C[C@@H]1CN([C@H](C)CO)C(=O)c2cc(C#CC3(O)CCCC3)cnc2O[C@@H]1CN(C)C(=O)Cc1ccccc1 | inactive: 0.98
COc1ccc(NC(=O)Nc2ccc3c(c2)C(=O)N([C@@H](C)CO)C[C@@H](C)[C@@H](CN(C)Cc2ccccc2)OCCCC[C@@H](C)O3)cc1 | inactive: 1
Cc1noc(C)c1NC(=O)Nc1ccc2c(c1)C(=O)N([C@H](C)CO)C[C@H](C)[C@H](CN(C)Cc1ccc(C(F)(F)F)cc1)OCCCC[C@@H](C)O2 | inactive: 0.971
C[C@@H]1CN([C@H](C)CO)C(=O)c2cc(N(C)C)ccc2O[C@@H](C)CCCCO[C@@H]1CN(C)C(=O)Nc1ccc(C(F)(F)F)cc1 | inactive: 1

SMILES | relative growth
CNC(=O)c1c(I)c(NC(C)=O)c(I)c(C(=O)O)c1I | inactive: 1.18
Cc1noc(C)c1S(=O)(=O)Nc1cccc2c1O[C@H](CN(C)Cc1ccccc1)[C@H](C)CN([C@H](C)CO)C2=O | inactive: 1.01
COC(=O)c1c(CC[C@@H](CO)NC(=O)N[C@@H](Cc2ccccc2)Cn2cc(C3(O)CCCC3)nn2)oc(C(=O)N2CCOCC2)c1C(=O)OC | inactive: 0.996
CS(=O)(=O)N1C[C@@H]2OCCN(c3cnccn3)[C@H]2C1 | inactive: 1.01
C[C@H]1CN([C@@H](C)CO)C(=O)Cc2cc(NC(=O)CCN3CCOCC3)ccc2O[C@H]1CN(C)CC1CC1 | inactive: 0.999
Clc1ccc(-c2cnc3ccc(-c4ccccc4)cn23)cc1 | inactive: 1
C[C@@H]1CCCCO[C@H](CN(C)C(=O)c2ccccc2)[C@@H](C)CN([C@@H](C)CO)C(=O)c2cc(NC(=O)Nc3ccc(F)cc3)ccc2O1 | inactive: 0.987
C[C@@H]1CN([C@@H](C)CO)C(=O)c2cc(C#Cc3ccccc3F)cnc2O[C@@H]1CN(C)C(=O)Cc1cccnc1 | inactive: 0.999
C[C@H]1CN([C@@H](C)CO)C(=O)c2cc(NC(=O)NC3CCCCC3)ccc2O[C@H]1CN(C)Cc1ccc(C(F)(F)F)cc1 | inactive: 0.994
C[C@@H]1CCCCO[C@@H](CN(C)Cc2ccncc2)[C@H](C)CN([C@H](C)CO)C(=O)c2cc(NC(=O)C3CCCCC3)ccc2O1 | inactive: 1.01
C[C@@H]1CN([C@@H](C)CO)C(=O)c2cc(NS(=O)(=O)c3cccs3)ccc2O[C@@H](C)CCCCO[C@@H]1CN(C)C(=O)Nc1cccc2ccccc12 | inactive: 1.01
C[C@@H]1CN([C@@H](C)CO)C(=O)c2cccc(NC(=O)c3ccc(-c4nccs4)cc3)c2O[C@@H]1CN(C)C(=O)Nc1ccc(F)cc1 | inactive: 0.997
COc1ccc(-c2cnc3c(c2)C(=O)N([C@@H](C)CO)C[C@@H](C)[C@@H](CN(C)C(=O)Cc2cccnc2)O3)cc1 | inactive: 1
C[C@@H]1CN([C@@H](C)CO)C(=O)c2cc(NC(=O)CCC(F)(F)F)ccc2O[C@@H](C)CCCCO[C@H]1CN(C)Cc1ccc2c(c1)OCO2 | inactive: 0.991
OCc1cccc(-c2ccsc2)c1 | inactive: 0.966
COCC#Cc1ccc2c(c1)O[C@@H](CN(C)Cc1ccc(F)cc1)[C@H](C)CN([C@@H](C)CO)S2(=O)=O | inactive: 1.05
COc1cccc(-c2ccc3c(c2)O[C@@H](CN(C)C(=O)C2CCC2)[C@@H](C)CN([C@@H](C)CO)S3(=O)=O)c1 | inactive: 1.02
C[C@H](CO)N1C[C@H](C)[C@@H](CN(C)Cc2ccc(Oc3ccccc3)cc2)Oc2c(NC(=O)Cc3ccccc3)cccc2C1=O | inactive: 1.03
O=C(NCCO)C(=O)NCc1ccco1 | inactive: 0.99
